This is one part of the list. Cut-off read from the data, not from the text of the source: active = 3.2 or more and inactive = the rest. The signal is at background level for most entries.
What was measured:
Assay in all cases: enrichment score (SH2-bound / input frequency) (ratio); bacterial display of known human phosphotyrosine sites (pTyr-Var adds point mutants) read by sequencing; higher = stronger binding; tyrosines were phosphorylated by kinases first
Details in all cases: peptide library: pTyr-Var
SHP2 C-SH2 domain E139D = molecular target: SHP2 C-SH2 domain E139D
[1] = molecular target: SHP2 C-SH2 domain wild-type
SHP2 N-SH2 domain L43F = molecular target: SHP2 N-SH2 domain L43F
SHP2 N-SH2 domain T42A = molecular target: SHP2 N-SH2 domain T42A
SHP2 N-SH2 domain T52S = molecular target: SHP2 N-SH2 domain T52S
[2] = molecular target: SHP2 N-SH2 domain wild-type

Measured: enrichment score
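Note: displayed peptides selected on beads carrying the immobilized SH2 domain, with library peptides lacking any tyrosine serving as negative controls.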

PLEGEYFTLQI [TP53_Y327_D324E]
inactive: SHP2 C-SH2 domain E139D 1.96 | [1] 2.51 | SHP2 N-SH2 domain L43F 2.4 | SHP2 N-SH2 domain T42A 2.38 | SHP2 N-SH2 domain T52S 2.08 | [2] 1.74

CTTIHHNFMCN [TP53_Y234_Y234H_YF]
active: SHP2 N-SH2 domain L43F 3.4
inactive: SHP2 C-SH2 domain E139D 3.09 | [1] 2.42 | SHP2 N-SH2 domain T42A 2.45 | SHP2 N-SH2 domain T52S 3.03 | [2] 2.25

CTTIHYYYMCN [TP53_Y234_N235Y]
active: SHP2 C-SH2 domain E139D 4.55 | [1] 3.86 | SHP2 N-SH2 domain L43F 3.39 | [2] 4.14
inactive: SHP2 N-SH2 domain T42A 2.73 | SHP2 N-SH2 domain T52S 3.02

CPTIHYNFMCN [TP53_Y234_T230P_YF]
inactive: SHP2 C-SH2 domain E139D 2.92 | [1] 3.07 | SHP2 N-SH2 domain L43F 3.01 | SHP2 N-SH2 domain T42A 2.81 | SHP2 N-SH2 domain T52S 3.19 | [2] 3.01

CNTIHYNYMCN [TP53_Y234_T230N]
inactive: SHP2 N-SH2 domain L43F 2.13 | SHP2 N-SH2 domain T42A 2.16 | SHP2 N-SH2 domain T52S 2.14 | [2] 1.8
active: SHP2 C-SH2 domain E139D 3.81 | [1] 5.51

CTTIHYNYMCI [TP53_Y234_N239I]
active: SHP2 C-SH2 domain E139D 4.6 | [1] 4.86 | SHP2 N-SH2 domain L43F 3.69 | SHP2 N-SH2 domain T42A 3.42 | SHP2 N-SH2 domain T52S 3.64 | [2] 3.93

CTTILYNFMCN [TP53_Y234_H233L_YF]
inactive: [1] 2.92 | SHP2 N-SH2 domain T42A 2.21 | SHP2 N-SH2 domain T52S 3.08 | [2] 2.92
active: SHP2 C-SH2 domain E139D 3.66 | SHP2 N-SH2 domain L43F 3.32

CTTVHYNYMCN [TP53_Y234_I232V]
inactive: SHP2 N-SH2 domain T42A 3.17 | [2] 2.67
active: SHP2 C-SH2 domain E139D 4.11 | [1] 6.33 | SHP2 N-SH2 domain L43F 3.29 | SHP2 N-SH2 domain T52S 3.26

CTTIHYNFKCN [TP53_Y234_M237K_YF]
inactive: SHP2 C-SH2 domain E139D 2.8 | [1] 2.26 | SHP2 N-SH2 domain L43F 2.73 | SHP2 N-SH2 domain T42A 2.13 | SHP2 N-SH2 domain T52S 2.4 | [2] 2.35

CTTIHYNYMCT [TP53_Y234_N239T]
inactive: SHP2 N-SH2 domain T42A 3
active: SHP2 C-SH2 domain E139D 4.69 | [1] 5.27 | SHP2 N-SH2 domain L43F 3.44 | SHP2 N-SH2 domain T52S 3.6 | [2] 3.22

CTTIHYTFMCN [TP53_Y234_N235T_YF]
active: SHP2 C-SH2 domain E139D 4.12 | [1] 3.64 | SHP2 N-SH2 domain L43F 3.48 | SHP2 N-SH2 domain T52S 3.49 | [2] 3.82
inactive: SHP2 N-SH2 domain T42A 2.75

CTTIHYNYMCY [TP53_Y234_N239Y]
active: SHP2 C-SH2 domain E139D 4.81 | [1] 5.22 | SHP2 N-SH2 domain L43F 4.07 | SHP2 N-SH2 domain T42A 3.43 | SHP2 N-SH2 domain T52S 4.15 | [2] 3.35

CTAIHYNYMCN [TP53_Y234_T231A]
inactive: SHP2 N-SH2 domain L43F 2.85 | SHP2 N-SH2 domain T42A 2.6 | SHP2 N-SH2 domain T52S 2.7 | [2] 2.27
active: SHP2 C-SH2 domain E139D 3.98 | [1] 5.25

CTTIHYNYICN [TP53_Y234_M237I]
inactive: [2] 2.99
active: SHP2 C-SH2 domain E139D 5.92 | [1] 5.69 | SHP2 N-SH2 domain L43F 3.74 | SHP2 N-SH2 domain T42A 3.21 | SHP2 N-SH2 domain T52S 3.4

CATIHYNFMCN [TP53_Y234_T230A_YF]
active: SHP2 C-SH2 domain E139D 3.57
inactive: [1] 3.12 | SHP2 N-SH2 domain L43F 3.06 | SHP2 N-SH2 domain T42A 2.57 | SHP2 N-SH2 domain T52S 2.91 | [2] 3.05

CTTVHYNFMCN [TP53_Y234_I232V_YF]
inactive: SHP2 C-SH2 domain E139D 3.08 | [1] 2.69 | SHP2 N-SH2 domain L43F 3.12 | SHP2 N-SH2 domain T42A 2.59 | SHP2 N-SH2 domain T52S 2.97 | [2] 2.9

CTTIHSNYMCN [TP53_Y234_Y234S]
inactive: SHP2 C-SH2 domain E139D 2.69 | SHP2 N-SH2 domain L43F 2 | SHP2 N-SH2 domain T42A 1.87 | SHP2 N-SH2 domain T52S 2.29 | [2] 1.98
active: [1] 4.21

CTTIHYNFMCD [TP53_Y234_N239D_YF]
active: SHP2 C-SH2 domain E139D 4.14 | [1] 3.74 | SHP2 N-SH2 domain L43F 3.89 | SHP2 N-SH2 domain T42A 3.21
inactive: SHP2 N-SH2 domain T52S 3.11 | [2] 3.04

CTTIHQNYMCN [TP53_Y234_Y234Q]
inactive: SHP2 C-SH2 domain E139D 2.74 | SHP2 N-SH2 domain L43F 2.13 | SHP2 N-SH2 domain T42A 1.69 | SHP2 N-SH2 domain T52S 1.92 | [2] 1.87
active: [1] 4.41

CTTIRYNFMCN [TP53_Y234_H233R_YF]
inactive: SHP2 N-SH2 domain T42A 2.53 | SHP2 N-SH2 domain T52S 3.18
active: SHP2 C-SH2 domain E139D 3.57 | [1] 3.59 | SHP2 N-SH2 domain L43F 3.55 | [2] 3.2

CTTIHYNYMWN [TP53_Y234_C238W]
inactive: SHP2 C-SH2 domain E139D 1.47 | [1] 1.8 | SHP2 N-SH2 domain L43F 1.28 | SHP2 N-SH2 domain T42A 1.38 | SHP2 N-SH2 domain T52S 1.46 | [2] 1.61

CTTIHFNYMCN [TP53_Y234_Y234F]
active: SHP2 C-SH2 domain E139D 4.13 | [1] 4.22 | SHP2 N-SH2 domain L43F 3.7
inactive: SHP2 N-SH2 domain T42A 2.88 | SHP2 N-SH2 domain T52S 2.89 | [2] 3

CTTILYNYMCN [TP53_Y234_H233L]
inactive: SHP2 N-SH2 domain T42A 2.6 | [2] 3.13
active: SHP2 C-SH2 domain E139D 3.67 | [1] 3.39 | SHP2 N-SH2 domain L43F 3.49 | SHP2 N-SH2 domain T52S 3.24

CATIHYNYMCN [TP53_Y234_T230A]
active: SHP2 C-SH2 domain E139D 3.98 | [1] 5.59
inactive: SHP2 N-SH2 domain L43F 2.57 | SHP2 N-SH2 domain T42A 2.5 | SHP2 N-SH2 domain T52S 2.74 | [2] 2.25

CTSIHYNFMCN [TP53_Y234_T231S_YF]
active: SHP2 C-SH2 domain E139D 3.91 | [1] 3.37 | SHP2 N-SH2 domain L43F 3.42
inactive: SHP2 N-SH2 domain T42A 2.68 | SHP2 N-SH2 domain T52S 3.01 | [2] 2.94

CTTIHYNYTCN [TP53_Y234_M237T]
active: [1] 3.86
inactive: SHP2 C-SH2 domain E139D 3.08 | SHP2 N-SH2 domain L43F 2.95 | SHP2 N-SH2 domain T42A 2.54 | SHP2 N-SH2 domain T52S 2.92 | [2] 2.81

CTTIHYNFMCF [TP53_Y234_N239Y_YF]
inactive: SHP2 C-SH2 domain E139D 3.14 | SHP2 N-SH2 domain L43F 3.05 | SHP2 N-SH2 domain T42A 2.32 | SHP2 N-SH2 domain T52S 2.86
active: [1] 3.36 | [2] 3.46

CTTIQYNFMCN [TP53_Y234_H233Q_YF]
inactive: SHP2 N-SH2 domain T42A 2.83
active: SHP2 C-SH2 domain E139D 4.25 | [1] 3.31 | SHP2 N-SH2 domain L43F 3.69 | SHP2 N-SH2 domain T52S 3.3 | [2] 3.34

CTTSHYNFMCN [TP53_Y234_I232S_YF]
inactive: SHP2 C-SH2 domain E139D 2.62 | [1] 2.44 | SHP2 N-SH2 domain L43F 2.32 | SHP2 N-SH2 domain T42A 2.3 | SHP2 N-SH2 domain T52S 2.36 | [2] 2.13

CTTFHYNYMCN [TP53_Y234_I232F]
inactive: SHP2 N-SH2 domain L43F 2.78 | SHP2 N-SH2 domain T42A 2.74 | SHP2 N-SH2 domain T52S 3.08 | [2] 2.88
active: SHP2 C-SH2 domain E139D 3.54 | [1] 4.53

CTTIHNNYMCN [TP53_Y234_Y234N]
inactive: SHP2 C-SH2 domain E139D 1.92 | SHP2 N-SH2 domain L43F 1.64 | SHP2 N-SH2 domain T42A 1.43 | SHP2 N-SH2 domain T52S 1.63 | [2] 1.25
active: [1] 3.74

CTTIHYNFMWN [TP53_Y234_C238W_YF]
inactive: SHP2 C-SH2 domain E139D 2.08 | [1] 2.44 | SHP2 N-SH2 domain L43F 1.97 | SHP2 N-SH2 domain T42A 1.85 | SHP2 N-SH2 domain T52S 2.27 | [2] 2.3

CTTIHYNFMCN [TP53_Y234_Y236F]
active: SHP2 C-SH2 domain E139D 4.44 | [1] 3.79 | SHP2 N-SH2 domain L43F 4.06 | SHP2 N-SH2 domain T52S 3.68 | [2] 3.54
inactive: SHP2 N-SH2 domain T42A 2.9

CTNIHYNYMCN [TP53_Y234_T231N]
active: SHP2 C-SH2 domain E139D 3.24 | [1] 5.03
inactive: SHP2 N-SH2 domain L43F 2.61 | SHP2 N-SH2 domain T42A 2.4 | SHP2 N-SH2 domain T52S 2.47 | [2] 2.16

CTTIHYMYMCN [TP53_Y234_N235M]
inactive: SHP2 C-SH2 domain E139D 2.67 | [1] 3.06 | SHP2 N-SH2 domain L43F 2.31 | SHP2 N-SH2 domain T42A 2.24 | SHP2 N-SH2 domain T52S 2.27 | [2] 2.33

CTTIHYNYKCN [TP53_Y234_M237K]
inactive: SHP2 C-SH2 domain E139D 3.04 | [1] 2.75 | SHP2 N-SH2 domain L43F 3.17 | SHP2 N-SH2 domain T42A 2.07 | SHP2 N-SH2 domain T52S 2.75 | [2] 2.21

CTTIHYNFTCN [TP53_Y234_M237T_YF]
inactive: SHP2 N-SH2 domain T42A 3.13
active: SHP2 C-SH2 domain E139D 4.18 | [1] 4.19 | SHP2 N-SH2 domain L43F 4.19 | SHP2 N-SH2 domain T52S 3.36 | [2] 3.34

CTTIHDNYMCN [TP53_Y234_Y234D]
active: [1] 3.6
inactive: SHP2 C-SH2 domain E139D 1.63 | SHP2 N-SH2 domain L43F 1.26 | SHP2 N-SH2 domain T42A 0.923 | SHP2 N-SH2 domain T52S 0.944 | [2] 0.895

CTTIHYNFLCN [TP53_Y234_M237L_YF]
active: SHP2 C-SH2 domain E139D 3.93 | [1] 3.61 | SHP2 N-SH2 domain L43F 3.71
inactive: SHP2 N-SH2 domain T42A 2.87 | SHP2 N-SH2 domain T52S 3.14 | [2] 2.92
